This is one part of the list. The main result of the screen is listed elsewhere. These columns were measured beside it and carry no call.
Legend:
Assay in all cases: Primary Screen for Target Class Profiling of Small Molecule Inhibitors of Methyltransferases
[1] = target: Glycine N-methyltransferase (Homo sapiens) (UniProt Q14749); conditions: purified enzyme, MTase-Glo SAH luminescence; measured here: GNMT inhibition; at 40 µM; stronger effect = lower value
Outline: (§1)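 Each enzyme was assayed with SAM and its substrate. SAH formation detected by MTase-Glo luminescence; single-point 40 uM screen[…].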

[2] = target: Guanidinoacetate N-methyltransferase (Homo sapiens) (UniProt Q14353); conditions: purified enzyme, MTase-Glo SAH luminescence; measured here: GAMT inhibition; at 40 µM; stronger effect = lower value
Outline: as §1

[3] = target: Histamine N-methyltransferase (Homo sapiens) (UniProt P50135); conditions: purified enzyme, MTase-Glo SAH luminescence; measured here: HNMT inhibition; at 40 µM; stronger effect = lower value
Outline: as §1

[4] = target: Nicotinamide N-methyltransferase (Homo sapiens) (UniProt P40261); conditions: purified enzyme, MTase-Glo SAH luminescence; measured here: NNMT inhibition; at 40 µM; stronger effect = lower value
Outline: as §1

[5] = target: Phenylethanolamine N-methyltransferase (Homo sapiens) (UniProt P11086); conditions: purified enzyme, MTase-Glo SAH luminescence; measured here: PNMT inhibition; at 40 µM; stronger effect = lower value
Outline: as §1
% is set by controls: 0 for no effect and ±100 for the full control effect.

Structure (SMILES) | activity change, negative = inhibition [1] | activity change, negative = inhibition [2] | activity change, negative = inhibition [3] | activity change, negative = inhibition [4] | activity change, negative = inhibition [5]
CC(CCc1ccccc1)NC(=O)c1cc2n(n1)CC(C)(C(=O)NC1CCCC1)N(C)C2=O (stereo not given) | 5.8% | 0% | 1.41% | 3.91% | -0.258%
Cc1ccc(C)c(NC(=O)Cn2c(=O)oc3cc(S(=O)(=O)N4CC(C)CC(C)C4)ccc32)c1 (stereo not given) | -5.65% | 5.9% | 5.31% | 8.92% | -0.171%
CC(=O)/C=C/C1(O)C(C)(C)CC(O)CC1(C)O (stereo not given) | 4.47% | 7.07% | -3.31% | -6.82% | 4.91%
Cc1ccccc1CN1C(=O)c2nc3ccccc3n2CC1(C)C(=O)NC1CCCCC1C (stereo not given) | -1.06% | 0.219% | 5.81% | 3.71% | -8.02%
Cc1cc(C)n(-c2cccc(CN3CCCC(O)(CN(C)C)C3)c2)n1 (stereo not given) | -7.08% | -12.3% | -7.23% | -18.8% | -17.1%
CC1(c2ccccc2)N(Cc2cccnc2)C(=O)OC12CCN(C(=O)Cc1ccc(Cl)cc1)CC2 (stereo not given) | -6.5% | -4.02% | -2.39% | -6.35% | -6.24%
COc1cccc(CNc2nc3c(S(=O)(=O)c4ccc(Br)cc4)nnn3c3ccccc23)c1 | 6.22% | 2.2% | 3.47% | 4.28% | -0.84%
CS(=O)(=O)N1CCOc2ccc(CCC(=O)NCC3CCCO3)cc2C1 (stereo not given) | -1.78% | -11.9% | -2.04% | -5.59% | -3.1%
CCOc1cc(CNC2CCCC2)cc(Cl)c1OCc1ccc(Cl)cc1 | -6.75% | -1.48% | -11.7% | -19.6% | -2.5%
CCCn1c(=O)c2ccc(C(=O)NCC(C)C)cc2n2c(SCC(=O)Nc3ccc(C)c(C)c3)nnc12 | 7.36% | 0.171% | 7.47% | 0.461% | 6.48%
COc1ccc(CNC(=O)C2(C)Cn3cnc(C(=O)NCCc4ccccc4)c3C(=O)N2C2CC2)cc1 (stereo not given) | 0.915% | 1.02% | 9.06% | 0.895% | 8.69%
Cc1ccccc1N1C(=O)c2cc3sccc3n2CC1(C)C(=O)NC1CCCC(C)C1C (stereo not given) | 0.684% | 3.63% | 4.02% | -4.65% | 1.5%
CSc1ccc(CN2C(=O)c3ccc(-c4ccco4)n3CC2(C)C(=O)NC2CCCCCC2)cc1 (stereo not given) | -2.94% | 0.21% | -0.3% | -1.16% | 2.38%
CC(C)c1ccc(NC(=O)c2cc3n(n2)CC(C)(C(=O)NC2CCCCCC2)N(C)C3=O)cc1 (stereo not given) | -1.75% | 2.26% | -0.336% | -0.394% | 1.16%
CC(NC(=O)CCc1nnc2n(CCc3ccccc3)c(=O)c3ccccc3n12)c1ccccc1 (stereo not given) | -8.77% | 3.81% | -0.291% | -0.865% | -4.03%
CCc1ccc(NS(=O)(=O)c2cc3[nH]c(=O)[nH]c3cc2C)cc1 | -0.913% | 0.941% | 2.07% | -11.2% | -22.3%
Cc1ccc(CNC(=O)C2(C)Cn3nc(C(=O)NCc4ccc(F)cc4)cc3C(=O)N2C)cc1 (stereo not given) | 7.2% | 1.17% | 5.02% | 11.6% | 7.89%
CC1(C(=O)NC2CCCCCC2)Cn2c(cc3occc32)C(=O)N1Cc1ccc(Cl)cc1 (stereo not given) | -9.06% | 2.63% | -2.18% | -7.01% | -2.52%
COc1ccc(NC(=O)CSc2nnc3[nH]c(=O)c(C(C)(C)C)nn23)cc1OC | -3.44% | 0.336% | -1.06% | -6.63% | -6.24%

Structure (SMILES) | activity change, negative = inhibition [1] | activity change, negative = inhibition [2] | activity change, negative = inhibition [3] | activity change, negative = inhibition [4] | activity change, negative = inhibition [5]
COc1ccc(-c2cc(=O)c3c(O)c(OC)c(OC)cc3o2)cc1O | -34.2% | -14.9% | -32% | -22% | -22.8%
C=CC(N)CCC(=O)O (stereo not given) | -5.36% | 2.99% | 0.36% | -2.72% | 8.9%
CC(C)CCNC(=O)C1(C)Cn2nc(C(=O)NCCN3CCCC3)cc2C(=O)N1C (stereo not given) | 4.32% | 0% | 5.88% | 6.35% | 3.4%
CCC(C)NC(=O)c1ccc2c(=O)n(C(C)C)c3nn(CC(=O)Nc4ccccc4F)c(=O)n3c2c1 (stereo not given) | 4.64% | 0% | 3.97% | 3.2% | 0.827%
CC(C)CCn1c(=O)c2ccc(C(=O)NC3CCCC3)cc2n2c(=O)n(CC(=O)c3ccccc3)nc12 | -4.82% | 1.47% | -3.36% | -6.75% | -3.57%
COCc1nc(C2CC(N)C2)cc(N2CCC(Cn3cccn3)CC2)n1 (stereo not given) | 2.13% | 1.61% | 2.7% | -2.87% | 4.95%
COc1ccc(OC)c(CNS(=O)(=O)c2cc3[nH]c(=O)[nH]c3cc2C)c1 | 13% | 1.17% | 14% | 6.42% | 9.51%
CCC1C(=O)NCCN1Cc1cn(-c2cccc(F)c2)nc1-c1ccc(C)o1 (stereo not given) | -25.5% | -4.51% | -2.49% | -6.26% | -15.8%
CCCn1c(=O)c2ccccc2n2c(=O)n(Cc3ccccc3Cl)nc12 | 0.843% | 6.8% | 7.92% | -9.33% | 4.77%
CC1(C)CC[C@]2(C(=O)O)CC[C@]3(C)C(=CCC4[C@@]5(C)C[C@@H](O)[C@H](O)[C@@](C)(CO)C5CC[C@]43C)C2C1 (stereo not given in full) | 3.64% | 5.22% | 6.05% | -6.94% | -0.904%
CCN(Cc1nccn1C)C(=O)c1ccc(N2CCC(COC)C2)nc1 (stereo not given) | -2.4% | -1.76% | 0.271% | -2.58% | -1.97%
CSc1ccc(CCNC(=O)c2oc3cc4sc(N(C)C)nc4cc3c2C)cc1 | 4.79% | 0% | 5.88% | 10.3% | 3.25%
CC1=CCC(O)C2(C)CCC3C(C)C(=O)OC3C12 (stereo not given) | -5.17% | -6.09% | 3.88% | -15.9% | -12.5%
CC1(C(=O)NC2CCCCCC2)Cn2c(cc3sccc32)C(=O)N1CCCc1ccccc1 (stereo not given) | 1.5% | 2.19% | 4.72% | 4.01% | -1.18%
CCOC(=O)c1cc2n(n1)CC(C)(C(=O)NCc1ccccc1)N(c1ccccc1C)C2=O (stereo not given) | 4.51% | 0% | 3.94% | 3.47% | 1.3%
COc1ccc(/C=C/C(=O)O[C@@H]2[C@@H](O[C@@H]3O[C@H](CO)[C@@H](O)[C@H](O)[C@H]3O)[C@@H](O)[C@H](O[C@H]3C4C=CO[C@@H](O[C@@H]5O[C@H](CO)[C@@H](O)[C@H](O)[C@H]5O)C4[C@@]4(CO)O[C@@H]34)O[C@H]2C)cc1 (stereo not given in full) | -2.7% | -7.65% | 6.98% | -20.5% | -7.94%
Cc1ccccc1-c1cc(O)c2c(c1)CN(C(=O)C1CCNCC1)CCO2 | -9.74% | -0.016% | -8.82% | -6.67% | -2.02%
COCC1(CNCC2CCCC2)C[C@@H](O)[C@@H](O)C1 (stereo not given in full) | -1.25% | -6.58% | -2.95% | -8.76% | -28.8%

Source: PubChem BioAssay AID1745853 (National Center for Advancing Translational Sciences (NCATS), 2022)
